Assay results: the BET-seq Pho4 binding data (Le et al. 2018)
Some of the results follow. These are noisy estimates, calculated here from bound and input reads.

biological target: T1, Pho4 (S. cerevisiae) (UniProt P07270); experiment: relative binding free energy (BET-seq); higher = weaker binding; details: reference: library average
T1 sequence: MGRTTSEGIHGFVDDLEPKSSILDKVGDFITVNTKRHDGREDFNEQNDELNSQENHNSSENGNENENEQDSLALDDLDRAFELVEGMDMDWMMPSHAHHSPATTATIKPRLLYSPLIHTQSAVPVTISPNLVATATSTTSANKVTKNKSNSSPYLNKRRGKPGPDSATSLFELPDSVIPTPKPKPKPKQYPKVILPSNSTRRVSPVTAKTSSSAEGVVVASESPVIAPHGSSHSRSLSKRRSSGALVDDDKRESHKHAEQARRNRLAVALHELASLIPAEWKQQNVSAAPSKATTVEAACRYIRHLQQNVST

| Sequence | relative binding free energy [kcal/mol] |
| --- | --- |
| GGGTTCACGTGTTAGT | 0.35 |
| TGGAACACGTGGGTAA | -0.11 |
| GGGGTCACGTGAATAT | 0.4 |
| AGAATCACGTGGGTTG | 0.08 |
| CGGAACACGTGGATGG | 0.09 |
| CTTAGCACGTGTGTTA | -0.22 |
| TACTGCACGTGTTATT | 0.12 |
| CTTGCCACGTGGTGGT | -0.18 |
| CGGGTCACGTGCGGCG | -0.1 |
| TGGTACACGTGTGTAG | 0.09 |
| TGTGACACGTGCGGCA | -0.06 |
| TGTGCCACGTGTAGCT | -0.11 |
| GTCTTCACGTGGTCGT | 0.11 |
| TTGGGCACGTGTACTA | -0.08 |
| GCGGGCACGTGAGTTG | 0.24 |
| TTTGACACGTGTGTTC | 0.06 |
| AGGGGCACGTGTCGAG | -0.1 |
| GGAATCACGTGGGGGG | 0.09 |
| GTTTCCACGTGGATGG | 0.14 |
| ATTTACACGTGCTAGG | -0.05 |
| AATGGCACGTGTGAGC | -0.1 |
| AGTTTCACGTGTTTAC | 0.19 |
| CTTGTCACGTGTGAAT | 0.07 |
| TTTGCCACGTGAGTTA | 0.15 |
| TCTAACACGTGGTGGT | -0.15 |

| Sequence | relative binding free energy [kcal/mol] |
| --- | --- |
| GTTTGCACGTGTAGTG | 0.15 |
| TAGATCACGTGATGCG | 0.25 |
| TTACTCACGTGTGTAA | 0.25 |
| GGTTACACGTGATCAG | 0.22 |
| GGTACCACGTGTGGCT | 0.01 |
| TTTGCCACGTGTTTGG | -0.02 |
| TAGTTCACGTGGGACA | 0.18 |
| TTTAACACGTGCGGGG | -0.07 |
| CGGGTCACGTGGTAAT | 0.03 |
| TTGCACACGTGGTTTT | 0 |
| TTGCGCACGTGTAATG | 0 |
| GAGTGCACGTGGTTAA | 0.04 |
| AAAGACACGTGGAGTG | 0.08 |
| ATAGGCACGTGTGCAG | -0.27 |
| GTTTTCACGTGATGCG | 0.32 |
| ATTTGCACGTGTATTA | 0.06 |
| TCGTGCACGTGCGGGG | -0.11 |
| TGACTCACGTGATGTA | 0.42 |
| TGAGGCACGTGAGTAG | 0.1 |
| GGGGACACGTGACGGT | 0.1 |
| AGTGGCACGTGTGTAG | -0.09 |
| GGCACCACGTGAGGGG | 0.07 |
| TGTGTCACGTGTAGTG | 0.08 |
| GCTGGCACGTGTTATT | 0.06 |
| AAAGGCACGTGGTGAT | -0.31 |

| Sequence | relative binding free energy [kcal/mol] |
| --- | --- |
| TAGACCACGTGAGGGG | 0.11 |
| AGTGGCACGTGGGTTT | -0.19 |
| TCGGGCACGTGGGCAG | -0.24 |
| TTGTGCACGTGTATGG | 0.12 |
| GGATTCACGTGTTGCA | 0.39 |
| TGTATCACGTGAGGTG | 0.3 |
| TATGTCACGTGGAGGC | 0.14 |
| TTAGGCACGTGGAATT | -0.01 |
| GTCGACACGTGATTGT | 0.21 |
| CTTGTCACGTGAAGGG | 0.24 |
| AGTTCCACGTGTGGTG | 0.12 |
| TTATACACGTGTAAGG | 0.06 |
| CAATACACGTGGGTGT | -0.06 |
| AGATGCACGTGGGCAT | -0.19 |
| CATTTCACGTGTTGAA | 0.34 |
| AATGTCACGTGAGTTC | 0.29 |
| GCAGTCACGTGTTTGG | 0.13 |
| AGCGGCACGTGTATAG | -0.05 |
| CATTGCACGTGTGGAG | 0.01 |
| CGCGCCACGTGGGGTT | -0.23 |
| AGTAACACGTGATATG | 0.07 |
| ATGTCCACGTGGTGGG | -0.02 |
| CGTCGCACGTGGTCGG | -0.22 |
